# The other results are listed elsewhere or left out. The full chains were built here from the parent and the listed change. Inactive controls read about 0.05.
# B1: TEV protease; numbered along this chain (parent)
# chain: MGESLFKGPRDYNPISSSICHLTNESDGHTTSLYGIGFGPFIITNKHLFRRNNGTLVVQSLHGVFKVKDTTTLQQHLVDGRDMIIIRMPKDFPPFPQKLKFREPQREERICLVTTNFQTKSMSSMVSDTSCTFPSGDGIFWKHWIQTKDGQCGSPLVSTRDGFIVGIHSASNFTNTNNYFTSVPKNFMELLTNQEAQQWVSGWRLNADSVLWGGHKVFMVKPEEPFQPVKEATQL
# Variants of: B1
# Experiment: raw area under fraction-flipped curve 0-4 h after induction (AUC4h, not background-subtracted), DNA-recorder readout of cleavage of the substrate (dimensionless); higher = more cleavage of the substrate by the protease variant
# Conditions: temperature: 34 °C; time window: 0-4 h after rhamnose induction
# Protocol: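 In vivo DNA recorder in E. coli TOP10(DE3) ΔrhaA at 34 °C. Each TEVp single-site mutant (parent TEVp 0) is paired with a single-site variant of the 7-mer TEVs (canonical ENLYFQ|S). The substrate sits between flexible linkers in a Bxb1-sfGFP-TEVs-SsrA fusion, so cleavage stabilises Bxb1 and speeds flipping of a recombination array, read by NGS. The value is the raw area under the fraction-flipped curve over 0-4 h after rhamnose induction (AUC4h), with ≥20 reads per time point. It is not background-subtracted; inactive controls average about 0.047.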
# 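Further: Bxb1 expression induced with 0.2% (w/v) L-rhamnose at OD600 near 0.5, cultures sampled hourly, flipped fraction per protease–substrate barcode pair counted by paired-end Illumina sequencing.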
Variant,area with substrate ENLYCQS,area with substrate ENLYDQS,area with substrate ENLYEQS,area with substrate ENLYHQS,area with substrate ENLYIQS,area with substrate ENLYKQS,area with substrate ENLYLQS,area with substrate ENLYNQS,area with substrate ENLYPQS,area with substrate ENLYRQS,area with substrate ENLYSQS,area with substrate ENLYTQS,area with substrate ENLYGQS,area with substrate ENLYQQS,area with substrate ENLYWQS,area with substrate ENLYMQS,area with substrate ENLYVQS,area with substrate ENLYYQS
N24S,0.0678,0.065,0.0447,0.0833,0.0778,0.0713,0.0728,0.0728,0.0713,0.0462,0.0714,0.0649,,,,,,
L33K,0.0554,0.0638,0.054,0.0571,0.0529,0.0529,,,0.0526,,0.0536,0.0631,0.0602,0.0473,0.0774,,,
N45L,0.0581,0.0624,0.0561,0.0586,0.0632,0.0596,,0.0456,,0.0589,0.0673,,0.0509,0.0581,0.0554,0.0512,0.0539,0.0625
N45Y,0.0582,0.0548,0.0612,0.0526,0.0616,0.0151,,0.0489,0.0619,0.0634,0.0581,,0.0629,0.0639,0.034,0.0587,0.0561,0.0667
L48P,0.0379,0.0286,0.059,0.0679,,0.0514,,0.0626,0.0603,0.0493,0.0352,,,0.0599,0.0502,,0.0658,
L48T,0.0631,,0.0823,0.0604,,0.0803,,0.0496,0.0589,0.0543,0.0592,,0.0534,0.0491,0.0643,0.074,0.0561,
T55Q,0.0876,0.0617,0.0648,0.0604,0.14,0.0551,,,0.0713,0.0733,0.074,0.0841,0.0637,0.0544,0.0848,0.0869,0.116,0.062
L56H,0.0951,,0.0369,0.0305,0.0634,,,0.0485,0.0435,0.0688,,0.0329,0.0399,,,,,
L56K,0.0511,0.0359,0.0634,0.0588,0.0249,0.0291,,,0.046,0.0428,0.0428,0.0362,0.0445,,0.0499,0.0465,0.0408,
L56R,0.0451,0.0508,0.0437,,0.0578,0.0535,,0.0465,0.044,0.0509,0.0569,,0.0478,0.0447,0.042,0.0412,0.0594,0.0215
V64I,0.0826,,0.0683,0.0422,0.116,0.0598,0.0769,0.0713,,,,,0.0724,0.0426,0.0767,,0.124,0.0507
T72F,0.0659,0.0666,0.0681,0.0593,0.0935,0.0606,,0.0582,0.0759,0.0651,0.0749,0.0496,0.0555,0.0644,,0.0903,0.112,0.0618
Q74S,0.0665,0.0693,0.0615,,0.12,0.0641,0.0931,,,0.0688,,,,,0.0787,,,0.0663
H76C,0.0829,0.0613,0.0679,0.0936,0.13,0.0697,,0.0635,0.0779,0.06,0.0697,0.0866,0.0725,,0.0816,0.0896,0.111,0.0678
G80A,0.0974,0.0604,0.0688,,0.0939,0.0646,,0.0437,0.0805,0.0545,,,,,0.0785,0.0894,,0.0828
M88P,0.0604,0.0599,0.0658,0.085,0.0965,0.0375,,,,,,0.0471,0.0559,,0.0933,0.0641,0.0992,
M88R,0.0506,,0.0653,0.0435,0.0446,0.0363,,,0.0391,,0.0481,0.0337,0.0479,0.0465,,0.0648,,0.0385
F95Y,0.0785,0.0346,0.064,0.0674,0.111,,,0.0669,0.0723,0.0532,,,,0.0607,0.0728,,,
P96C,0.0783,0.0564,0.0638,0.068,0.19,0.0439,,0.0602,0.0773,,,,0.0627,0.0642,0.0823,0.0973,,
P96E,0.0865,0.0544,0.0713,0.0813,0.113,0.0558,0.102,,0.0754,0.062,0.127,,0.0709,0.0514,,0.0884,,
P96H,0.0698,0.0631,,0.0567,0.0639,0.0631,0.0783,0.0609,0.0729,,0.0672,0.0671,0.0636,0.0582,0.0915,0.0695,0.121,0.0612
P104R,0.0578,0.0575,,0.059,,0.0527,0.0387,0.0537,0.0719,0.0611,,,0.0481,0.0694,0.0516,,,0.0412
L112G,0.0516,0.0715,0.0646,0.0581,0.0631,0.0605,0.0542,0.0595,0.0726,0.0777,0.0619,0.0595,0.0794,0.054,,0.0561,0.0679,
L112M,0.0791,0.0612,,0.0651,0.11,0.064,,0.0955,,0.0587,,,0.0651,0.0658,,0.0916,0.131,
L112V,0.0902,0.0736,0.0736,0.0617,0.096,,,0.0745,,0.06,0.07,,,0.0682,0.0871,0.0864,,
T119M,0.103,,,0.0768,,,,,0.0566,,,,0.0605,0.0666,,,,0.0622
K120E,0.077,0.0731,0.0832,,,0.0395,,0.0615,0.072,0.0665,0.0825,,0.066,,0.0754,0.101,0.0976,0.0675
K120I,0.083,0.0688,0.0716,0.0458,,,0.0859,0.0627,0.0744,0.0527,0.0873,,,0.0631,,,0.0904,

# From the supplement of paper PMC12217912
